{"source": "PubChem BioAssay AID686971", "about": "(National Center for Advancing Translational Sciences (NCATS), 2013)", "note": "Screen size: about 360,000 compounds; about 7,500 (2.1%) were called active. Inconclusive results, whose numbers are uncertain, are shown with a selection of clear calls. The call rests on the fitted dose curve; in most records, active means well fitted cell-killing curve with a large enough effect; inconclusive means small, poorly fitted or top-dose-only effect, or effect the other way, or another doubt; inactive means no such curve, though single readings can be large or run the other way. Potencies of inconclusive entries are left out as doubtful fits. Potency means the concentration at half of the fitted maximal effect; tags describe the fitted curve by direction and shape.", "data": [{"experiment": "qHTS for induction of synthetic lethality in tumor cells producing 2HG: qHTS for the HT-1080-IDH1KD cell line;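 on activity, negative = toxicity: 0% = DMSO wells and -100% = cell-free medium wells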", "settings": "HT-1080 IDH1 knockdown viability, ATP luminescence, 48 h; activity, negative = toxicity: at 46.1 µM (top of the series) unless noted", "summary_of_the_method": "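Knockdown cells (IDH1KD HT-1080) received compounds 2 h after plating at 750 cells/well and were kept 48 h at 37 °C in 5% FBS RPMI. A CellTiter-Glo luminescence read gave % activity for curve fitting.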", "values": [{"smiles": "O=C1NC(Cc2ccc(O)cc2)c2nc3ccc(Br)cc3c(=O)n2-c2cc3ccccc3cc21", "note": "(stereo unspecified)", "Potency": "active: 13 µM"}, {"smiles": "CCC(C)NCCOCCOc1ccc(Br)cc1C", "note": "(stereo unspecified)", "Potency": "inconclusive [cytotoxic, single point]"}, {"smiles": "CC(=NCc1ccco1)c1c(C(F)(F)F)[nH]n(-c2nc3ccccc3s2)c1=O", "Potency": "inconclusive [cytotoxic, single point]"}, {"smiles": "COC1OC2COC(c3ccccc3)OC2C(OC(C)=O)C1OC(C)=O", "note": "(stereo unspecified)", "Potency": "inconclusive [rising, partial curve, poor fit]"}, {"smiles": "Cc1ccn2c(NC3CCCC3)c(-c3ccccn3)nc2c1", "Potency": "inconclusive [cytotoxic, single point]"}, {"smiles": "COC(=O)c1ccc(NC(=O)COc2ccc([N+](=O)[O-])cc2)cc1", "activity, negative = toxicity": "inactive: -6.65%"}, {"smiles": "Oc1cccc(Nc2nc(-c3ccccc3Cl)nc3ccccc23)c1", "Potency": "inconclusive [cytotoxic, partial curve]"}, {"smiles": "Cc1ccnc2nc(C(=O)OCCOc3ccc(Cl)cc3)nn12", "activity, negative = toxicity": "inactive: 0%"}, {"smiles": "CC(C)(C)OC(=O)CC(S(=O)(=O)c1ccccc1)S(=O)(=O)c1ccccc1", "Potency": "inconclusive [cytotoxic, single point]"}, {"smiles": "COc1ccccc1C(=O)NNC(=O)c1ccc2ccccc2c1O", "Potency": "inconclusive [cytotoxic, partial curve]"}, {"smiles": "O=C(/C=C/c1ccco1)Oc1cc(Br)cc(/C=N/NC(=O)c2ccccc2O)c1", "Potency": "active: 1.84 µM"}, {"smiles": "Nc1nc(=O)n(C2CC(O)C(CO)O2)cc1F", "note": "(stereo unspecified)", "Potency": "active: 5.17 µM"}, {"smiles": "O=[N+]([O-])c1ccc(-c2cnc(NO)nc2)cc1", "activity, negative = toxicity": "inconclusive: -31.4% [cytotoxic]"}, {"smiles": "OCC1(CCOc2ccccc2)CCN(Cc2ccc(OC(F)F)cc2)CC1", "Potency": "inconclusive [cytotoxic, single point]"}, {"smiles": "O=[N+]([O-])c1nccn1CCCCCCCCCCCN1CCOCC1", "activity, negative = toxicity": "inactive: -18.8%"}, {"smiles": "COc1cccc(CNc2nc3cc(-c4ccccc4C)sc3c(=O)n2C)c1", "Potency": "inconclusive [cytotoxic, single point]"}, {"smiles": "CCCCNc1c(-c2ccc(-c3cccc(Cl)c3)cc2)nc2ccccn12", "Potency": "inconclusive [cytotoxic, single point]"}, {"smiles": "CC(=O)c1ccc(Sc2nnnn2-c2ccccc2)c([N+](=O)[O-])c1", "Potency": "inconclusive [cytotoxic, single point]"}, {"smiles": "CCCCC(=O)N(C)c1c(CC)nc2c(OCCC3CCCCC3)cccn12", "Potency": "inconclusive [cytotoxic, single point]"}, {"smiles": "COc1ccc(-c2nc3c(C)cc(Br)cn3c2Cc2cccc(F)c2)cc1OC", "Potency": "inconclusive [cytotoxic, single point]"}, {"smiles": "O=C(/C=C/c1ccccc1F)c1ccoc1", "Potency": "inconclusive [cytotoxic, single point]"}, {"smiles": "COc1cc(C(=O)NCc2ccccc2Cl)ccc1OCC(=O)N1CCOCC1", "activity, negative = toxicity": "inactive: 9.52%"}, {"smiles": "O=C(NC12CC3CC(CC(C3)C1)C2)c1ccc(-c2ccc(Cl)cc2)o1", "Potency": "inconclusive [cytotoxic, single point]"}, {"smiles": "CCN1CCN(S(=O)(=O)c2ccc(Cl)c(C(=O)N(C)C3CCCCC3)c2)CC1", "activity, negative = toxicity": "inactive: -2.3%"}, {"smiles": "N#CC1C=Cc2c(ccc3ccccc23)N1C(=O)c1ccccc1", "note": "(stereo unspecified)", "Potency": "inconclusive [cytotoxic, full curve]"}, {"smiles": "CCCCCCCCN1C(=O)[C@H](CC(=O)N2CCOCC2)C[C@@]2(C(=O)OCC)CCCC=C12", "Potency": "inconclusive [cytotoxic, partial curve]"}, {"smiles": "Cc1cc2c(cc1C)-c1nnnn1C(N1CCC(Cc3ccccc3)CC1)C(=O)N2", "note": "(stereo unspecified)", "Potency": "inconclusive [cytotoxic, single point]"}, {"smiles": "CCCn1c(N2CCN(C(=O)/C=C/C(=O)O)CC2)nc2ccccc21", "activity, negative = toxicity": "inactive: 8.29%"}, {"smiles": "CC(C)Cn1c(-c2cc(Br)ccc2F)nc2c1c(=O)[nH]c(=O)n2CC(C)C", "Potency": "inconclusive [cytotoxic, partial curve]"}, {"smiles": "COc1ccc(-c2cc(C(F)F)n3ncc(C(=O)Nc4c(C)n(C)n(-c5ccccc5)c4=O)c3n2)cc1", "activity, negative = toxicity": "inactive: -3.76%"}, {"smiles": "NC(=O)C1(N2CCCCC2)CCN(CC(=O)Nc2cc(Cl)ccc2Cl)CC1", "Potency": "inconclusive [cytotoxic, single point]"}, {"smiles": "Cc1cccc2cc3c(N)c(C(=O)N4CCCc5ccccc54)sc3nc12", "Potency": "active: 2.31 µM"}, {"smiles": "Cc1cc(N)n2nc(-c3ccc(C(C)(C)C)cc3)cc2n1", "Potency": "active: 20.6 µM"}, {"smiles": "CC[C@]12c3[nH]c4cc(-c5ccco5)ccc4c3CCN1C(=O)[C@@H](CC(=O)NCC13CC4CC(CC(C4)C1)C3)C[C@@H]2C(=O)N1CCN(C(=O)c2ccco2)CC1", "activity, negative = toxicity": "inconclusive: -30.4% [cytotoxic]"}, {"smiles": "COC(=O)CSc1nc(N)c2c3c(sc2n1)C(c1ccccc1)SC(c1ccccc1)C3", "note": "(stereo unspecified)", "Potency": "inconclusive [cytotoxic, single point]"}, {"smiles": "Cc1cc(C)c2nc(C(F)(F)F)nc(NCCCN3CCOCC3)c2c1", "Potency": "active: 15.8 µM"}, {"smiles": "COc1ccc(/C=C/C(=O)c2ccc(O)cc2)cc1CN1CCOCC1", "Potency": "inconclusive [cytotoxic, single point]"}, {"smiles": "Clc1ncc(C#Cc2ccccc2)c2ncncc12", "Potency": "inconclusive [cytotoxic, single point]"}, {"smiles": "Cc1ccc(-c2nc3ccccn3c2NC(=O)c2ccco2)cc1", "activity, negative = toxicity": "inactive: -1.82% [at 9.24 µM]"}, {"smiles": "O=C(O)CNC(=O)c1ccccc1NC(=O)c1ccco1", "activity, negative = toxicity": "inactive: 2.39%"}, {"smiles": "C=C(C)CSc1nc2c(c(=O)[nH]c(=O)n2C)n1Cc1ccccc1", "activity, negative = toxicity": "inactive: -10.6%"}, {"smiles": "Nc1nc2cc3c(cc2cc1C(=O)NCc1ccc(F)cc1)OCO3", "Potency": "inconclusive [cytotoxic, partial curve]"}, {"smiles": "CC1=C(C(=O)OCc2ccccc2)C(/C=C/c2ccccc2)NC(=S)N1", "note": "(stereo unspecified)", "Potency": "inconclusive [cytotoxic, partial curve, poor fit]"}, {"smiles": "N#C/C(=C\\c1ccc(-c2ccc(C(=O)O)cc2)o1)c1nc2ccccc2[nH]1", "activity, negative = toxicity": "inconclusive: 1.36% [cytotoxic]"}, {"smiles": "O=C(Nc1nc2ccccc2s1)C1CCN(S(=O)(=O)c2cc([N+](=O)[O-])ccc2Cl)CC1", "Potency": "active: 16.4 µM"}, {"smiles": "O=C(COc1ccc(C(=O)c2ccccc2)cc1)Nc1cccnc1", "activity, negative = toxicity": "inactive: -25.8%"}, {"smiles": "CCOC(=O)N1CCC2(CC1)C(C#N)=C(N)Oc1n[nH]c(CSc3ccc(C)cc3)c12", "Potency": "inconclusive [cytotoxic, single point]"}, {"smiles": "CC1CN(S(=O)(=O)c2cccc(C(=O)NN3CCN(C)CC3)c2)CC(C)O1", "note": "(stereo unspecified)", "activity, negative = toxicity": "inactive: 7.72%"}, {"smiles": "COc1ccc(NS(=O)(=O)c2ccc(C)c(C(=O)N3CCN(Cc4cc(OC)ccc4OC)CC3)c2)cc1", "activity, negative = toxicity": "inactive: -11%"}, {"smiles": "Cc1ccc(-c2noc(CCC(=O)Nc3ccc(C)cn3)n2)cc1", "activity, negative = toxicity": "inactive: -0.291% [at 9.24 µM]"}, {"smiles": "O=C(NCCc1ccccn1)C(F)(F)C(F)(F)C(F)(F)C(F)(F)C(F)(F)C(F)(F)C(F)(F)C(F)F", "activity, negative = toxicity": "inactive: 4.17%"}, {"smiles": "Cc1onc(-c2ccccc2)c1C(O)c1ccc(F)cc1", "note": "(stereo unspecified)", "activity, negative = toxicity": "inactive: -2.42%"}, {"smiles": "Nc1cccc(-c2nc3ccc(N)cc3s2)c1", "Potency": "inconclusive [cytotoxic, single point]"}, {"smiles": "CCOc1ccc2ccccc2c1C(=O)N1CCN(c2ccccc2)CC1", "Potency": "active: 7.94 µM"}, {"smiles": "Cc1ccc(-n2c(-c3ccccc3)c[n+]3c2CCc2ccccc2-3)c(C)c1", "Potency": "inconclusive [cytotoxic, partial curve, poor fit]"}, {"smiles": "CC(=O)C1=C(O)C(=O)N(Cc2ccccc2)C1c1ccc(N(C)C)cc1", "note": "(stereo unspecified)", "Potency": "inconclusive [cytotoxic, full curve]"}, {"smiles": "NC(=S)NN=Cc1nccc2c(C(F)(F)C(F)(F)C(F)(F)F)cccc12", "Potency": "inconclusive [cytotoxic, full curve, poor fit]"}, {"smiles": "CCOc1ccc(S(=O)(=O)N2CCC(C(=O)N3CCOCC3)CC2)cc1C", "activity, negative = toxicity": "inactive: 0.542%"}, {"smiles": "CN(c1cccc(NC(=O)c2ccc(Cl)c(S(=O)(=O)Nc3ccccc3)c2)c1)S(C)(=O)=O", "Potency": "inconclusive [cytotoxic, single point]"}, {"smiles": "O=C(NC1CCCCC1)C12CC3CC(C1)CC(n1cncn1)(C3)C2", "activity, negative = toxicity": "inactive: 11.4%"}, {"smiles": "FC(F)(F)c1nnc2c(Sc3ccccc3)nc3ccccc3n12", "Potency": "inconclusive [cytotoxic, single point]"}, {"smiles": "N/C(=N\\c1nc(CSc2nc3ccccc3s2)cc(=O)[nH]1)Nc1ccc(F)cc1", "activity, negative = toxicity": "inactive: -29%"}, {"smiles": "CCCCN1CC(COCc2ccccc2)Oc2cccc(F)c2S1(=O)=O", "note": "(stereo unspecified)", "activity, negative = toxicity": "inactive: -4.05%"}, {"smiles": "Cc1cc(Br)c(OCC(=O)NN)c2c1CCC2", "Potency": "inconclusive [cytotoxic, single point]"}, {"smiles": "Clc1ccc(OCCCNCc2ccccc2)c(Br)c1", "Potency": "inconclusive [cytotoxic, single point]"}, {"smiles": "CCc1ccc(N(CC(=O)N2CCCCCC2)S(C)(=O)=O)cc1", "activity, negative = toxicity": "inactive: 12.9%"}, {"smiles": "Cc1c(Cl)cccc1NS(=O)(=O)c1ccccc1", "Potency": "inconclusive [cytotoxic, single point]"}, {"smiles": "Cc1nnc(C)n1/N=C/c1cc(Br)cc(Br)c1O", "Potency": "inconclusive [cytotoxic, single point]"}, {"smiles": "CC1=C(C(=O)Nc2ccccc2)C(c2cccc([N+](=O)[O-])c2)Nc2nc3ccccc3n21", "note": "(stereo unspecified)", "Potency": "inconclusive [cytotoxic, single point]"}, {"smiles": "COc1ccc(C2=Nn3c(nnc3-c3ccc(OC)cc3)SC2)cc1", "Potency": "inconclusive [cytotoxic, partial curve]"}, {"smiles": "C/C(CCc1oc2ccccc2c1-c1ccc(C)o1)=N/O", "Potency": "inconclusive [cytotoxic, single point]"}]}]}
